The list shows a part of the results. The list includes weakly bound sequences.

In the assay the target is MaxL homodimer (UniProt P61244). Put plainly: universal protein-binding microarray (PBM). To be noted: PBS-based mixture, 10 nM His-tagged protein dimer, 2% milk, 200 ng/uL BSA, 50 ng/uL salmon testes DNA, 0.02% TX-100; detection with Alexa 488 anti-His …; high values mean tight binding; most listed sequences are background and not binding sites; double strand, one strand shown.
Sequence of UniProt P61244 (P61244 whole entry): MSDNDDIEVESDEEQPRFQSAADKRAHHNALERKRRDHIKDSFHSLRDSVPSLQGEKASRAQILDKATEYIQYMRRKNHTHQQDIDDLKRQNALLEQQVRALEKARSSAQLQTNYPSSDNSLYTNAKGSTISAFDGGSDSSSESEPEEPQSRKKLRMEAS
In the case of GAGCGCGC, the binding signal (normalized occupancy) is 0.0806.

For the sequence AATAGCGA, the binding signal (normalized occupancy) turned out to be 0.0756.

Take CCATTATA: the binding signal (normalized occupancy) is 0.084.

As to AGTGTCTA, the binding signal (normalized occupancy) was 0.0734.

As to CTGGTAAC, the binding signal (normalized occupancy) was found to be 0.079.

On to CGCACTGA, for which the binding signal (normalized occupancy) turned out to be 0.0735.

As for AGAAATTA, the binding signal (normalized occupancy) was found to be 0.0722.

In the case of CTACCAGC, the binding signal (normalized occupancy) turned out to be 0.0702.

As for GGTCTCCA, the binding signal (normalized occupancy) was found to be 0.0758.

With GCATTTCC, the binding signal (normalized occupancy) came out at 0.0731.

GGAGGATA: the binding signal (normalized occupancy) was found to be 0.083.

Regarding AGGCGTAT, the binding signal (normalized occupancy) stood at 0.0765.

As to CGGTATCC, the binding signal (normalized occupancy) stood at 0.0742.

ATACAGCA: the binding signal (normalized occupancy) worked out at 0.0878.

With GAGGCCAA, the binding signal (normalized occupancy) was 0.0753.

Regarding CATACAAC, the binding signal (normalized occupancy) worked out at 0.0839.

Take AGAACGCC: the binding signal (normalized occupancy) was found to be 0.0718.

With GATTGTCC, the binding signal (normalized occupancy) stood at 0.0701.

As for CCGAGAGC, the binding signal (normalized occupancy) stood at 0.0704.

On to TACACCAA, for which the binding signal (normalized occupancy) is 0.0763.

For ACGCTGAG, the binding signal (normalized occupancy) turned out to be 0.0804.

AGGCATAC: the binding signal (normalized occupancy) was 0.076.

For AACAGGCA, the binding signal (normalized occupancy) was 0.0786.

On to CTGCCGTA, for which the binding signal (normalized occupancy) is 0.0736.

Take GGGGGACA: the binding signal (normalized occupancy) was 0.0784.

Consider CGCTAAGA, for which the binding signal (normalized occupancy) is 0.0782.

For the sequence ATATCAGC, the binding signal (normalized occupancy) was found to be 0.0751.

On to TGTGCGAA, for which the binding signal (normalized occupancy) was determined as 0.0731.

Turning to GGATCCCA, the binding signal (normalized occupancy) stood at 0.0774.

Regarding ATATCATC, the binding signal (normalized occupancy) amounted to 0.0869.

Regarding AAGGATTA, the binding signal (normalized occupancy) turned out to be 0.0734.

In the case of AGCCCGGA, the binding signal (normalized occupancy) came to 0.0629.

On to AAATACAT, for which the binding signal (normalized occupancy) stood at 0.0829.

As to CACGTGCC, the binding signal (normalized occupancy) is 0.521.

Take ATATCATG: the binding signal (normalized occupancy) is 0.093.

For AAAGTAAC, the binding signal (normalized occupancy) was determined as 0.0747.

Consider AGCTAGGA, for which the binding signal (normalized occupancy) is 0.0692.

For the sequence CTGAGATA, the binding signal (normalized occupancy) is 0.0736.

Regarding AGAATTCT, the binding signal (normalized occupancy) came out at 0.0715.

In the case of CGTATTCC, the binding signal (normalized occupancy) stood at 0.0751.

On to GTACGAGA, for which the binding signal (normalized occupancy) worked out at 0.0724.

Regarding GAGGACGA, the binding signal (normalized occupancy) amounted to 0.0703.

Consider CATAGTGC, for which the binding signal (normalized occupancy) was 0.0754.

Regarding CCCATAGC, the binding signal (normalized occupancy) was 0.0774.

Turning to TTCGAAAA, the binding signal (normalized occupancy) was 0.077.

As to CAGTCGTC, the binding signal (normalized occupancy) turned out to be 0.0678.

As for GAGTCTGC, the binding signal (normalized occupancy) was 0.0711.

In the case of TAATGCTA, the binding signal (normalized occupancy) is 0.0758.

As for GTGGTATA, the binding signal (normalized occupancy) was 0.0899.

As to CTGTCTGC, the binding signal (normalized occupancy) came to 0.0697.

Regarding AACTTGGG, the binding signal (normalized occupancy) turned out to be 0.0764.

As to CATAAGCG, the binding signal (normalized occupancy) was 0.0812.

Consider CTCTCGGA, for which the binding signal (normalized occupancy) stood at 0.074.

Take CTTGTATA: the binding signal (normalized occupancy) worked out at 0.0751.

ACGCCTCA: the binding signal (normalized occupancy) came to 0.0786.

Consider CAACTGTG, for which the binding signal (normalized occupancy) turned out to be 0.07.

As to GCACCTCC, the binding signal (normalized occupancy) amounted to 0.068.

CTCCGCCA: the binding signal (normalized occupancy) turned out to be 0.0692.

On to CGGTCCAC, for which the binding signal (normalized occupancy) is 0.0732.

Regarding GGGAGGAA, the binding signal (normalized occupancy) stood at 0.0758.

In the case of CCACTGAG, the binding signal (normalized occupancy) was determined as 0.0735.

Take GAGTCGAA: the binding signal (normalized occupancy) stood at 0.0727.

In the case of CTACCGAG, the binding signal (normalized occupancy) is 0.0731.

Consider GTTGGGGA, for which the binding signal (normalized occupancy) came to 0.0751.

For the sequence CCCGGTAC, the binding signal (normalized occupancy) was determined as 0.0723.

Regarding ATAGCCGG, the binding signal (normalized occupancy) amounted to 0.0679.

Take GGTCGGGA: the binding signal (normalized occupancy) turned out to be 0.0708.

With CGCAATAA, the binding signal (normalized occupancy) came to 0.0739.

For the sequence ATATCACG, the binding signal (normalized occupancy) came out at 0.0924.

Turning to ACTGTTCT, the binding signal (normalized occupancy) is 0.0713.

For the sequence AGGAGAGA, the binding signal (normalized occupancy) is 0.0757.

As for GTTGTTCA, the binding signal (normalized occupancy) was found to be 0.0746.

On to CTGTCGAA, for which the binding signal (normalized occupancy) was found to be 0.0765.

As for TACGTTCA, the binding signal (normalized occupancy) worked out at 0.0748.

With ACCCCACT, the binding signal (normalized occupancy) is 0.0842.

In the case of ATACTCTA, the binding signal (normalized occupancy) came out at 0.074.

Take ATTTGAGC: the binding signal (normalized occupancy) stood at 0.0747.

Regarding CTAACCGA, the binding signal (normalized occupancy) amounted to 0.0708.

AGCCCCGG: the binding signal (normalized occupancy) worked out at 0.0697.

ACAGCTCC: the binding signal (normalized occupancy) came to 0.0727.

Turning to AGGCTTAG, the binding signal (normalized occupancy) came out at 0.0703.

As for CTCAACAA, the binding signal (normalized occupancy) was found to be 0.0728.

Regarding ATTCATGA, the binding signal (normalized occupancy) was 0.082.

On to ATCAGCCC, for which the binding signal (normalized occupancy) worked out at 0.0832.

Turning to CTGTCACA, the binding signal (normalized occupancy) amounted to 0.0849.

For the sequence GAGTTCGA, the binding signal (normalized occupancy) worked out at 0.0753.

For the sequence AAGGTAAA, the binding signal (normalized occupancy) came to 0.0718.

With GCAAAAAC, the binding signal (normalized occupancy) worked out at 0.0756.

With AGGGAAGC, the binding signal (normalized occupancy) is 0.072.

On to CTTCTGGA, for which the binding signal (normalized occupancy) stood at 0.0731.

Consider CCCGGCGG, for which the binding signal (normalized occupancy) worked out at 0.0707.

Take CTAAACAG: the binding signal (normalized occupancy) is 0.0721.

As for CGGAGCAG, the binding signal (normalized occupancy) is 0.0661.

In the case of AGGAAAGC, the binding signal (normalized occupancy) stood at 0.0732.

Take ACTTGGAT: the binding signal (normalized occupancy) was 0.0756.

In the case of AATTTAAT, the binding signal (normalized occupancy) was 0.0753.

On to CAACCATG, for which the binding signal (normalized occupancy) stood at 0.0905.

For CAAAGGGC, the binding signal (normalized occupancy) was determined as 0.0671.

Consider GAGTGCCA, for which the binding signal (normalized occupancy) turned out to be 0.0814.

Consider CCTCGATC, for which the binding signal (normalized occupancy) was found to be 0.0708.

Consider GCAGAGAC, for which the binding signal (normalized occupancy) came to 0.0728.

As for CCTGCCGC, the binding signal (normalized occupancy) was found to be 0.0697.

Regarding ATAGGCGA, the binding signal (normalized occupancy) was found to be 0.0754.

Take ATCCAGTC: the binding signal (normalized occupancy) was found to be 0.0727.

Consider ACCAAGAG, for which the binding signal (normalized occupancy) came out at 0.0755.

Regarding GAAGATGC, the binding signal (normalized occupancy) worked out at 0.0756.

On to TACAGCAA, for which the binding signal (normalized occupancy) amounted to 0.0786.

On to AAAGAAAT, for which the binding signal (normalized occupancy) was 0.0716.

Regarding CTTCCAGC, the binding signal (normalized occupancy) is 0.0671.
